Results from publication PMC6919601, “Identification of Plasmodium dipeptidyl aminopeptidase allosteric inhibitors by high throughput screening” (PLoS ONE, 2019).
Hit rate of the full screen: of about 110,000 compounds, about 230 (0.21%) showed an effect of 50% or more. The list shows a part of the results.

Biological target: DPAP1 (Plasmodium falciparum, UniProt Q8IIJ9)
Test: primary screen, percent inhibition; read by cleavage of a fluorogenic dipeptide substrate; higher = more effect of the substance
Set-up: species or system P. falciparum D10 trophozoite lysates; single well
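Note: 30 min substrate incubation versus DMSO and 10 µM JCP410 controls.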

DPAP1, sequence (Q8IIJ9 whole entry, looked up): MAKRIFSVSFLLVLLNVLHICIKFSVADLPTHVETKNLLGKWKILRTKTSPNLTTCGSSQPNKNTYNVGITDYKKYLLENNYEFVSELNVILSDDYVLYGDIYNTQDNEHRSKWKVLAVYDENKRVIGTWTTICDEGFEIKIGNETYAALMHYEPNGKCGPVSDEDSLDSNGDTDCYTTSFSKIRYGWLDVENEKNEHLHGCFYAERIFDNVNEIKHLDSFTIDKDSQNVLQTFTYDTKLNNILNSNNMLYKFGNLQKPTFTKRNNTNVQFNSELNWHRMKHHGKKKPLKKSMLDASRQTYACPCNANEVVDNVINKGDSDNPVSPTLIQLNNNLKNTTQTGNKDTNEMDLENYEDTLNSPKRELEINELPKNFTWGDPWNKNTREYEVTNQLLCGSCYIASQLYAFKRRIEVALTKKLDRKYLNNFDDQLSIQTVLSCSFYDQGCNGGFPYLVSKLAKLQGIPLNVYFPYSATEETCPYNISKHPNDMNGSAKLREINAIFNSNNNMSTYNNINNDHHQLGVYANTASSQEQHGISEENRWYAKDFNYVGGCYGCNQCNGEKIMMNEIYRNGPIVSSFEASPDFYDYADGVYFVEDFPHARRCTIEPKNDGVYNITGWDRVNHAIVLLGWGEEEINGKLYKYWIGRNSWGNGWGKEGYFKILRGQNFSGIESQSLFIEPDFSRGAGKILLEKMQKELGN

In order of rising “% Inhibition @ 10 uM” value:
1. Nc1c(C(=O)c2ccccc2)sc2nc(-c3cccnc3)ccc12  -10.4%
2. CCCNC(=O)CN(c1cccc(C(F)(F)F)c1)S(=O)(=O)c1ccc(C)cc1  -9.02%
3. CCOc1ccc(NC(=O)CN(c2ccc(F)cc2)S(=O)(=O)c2ccccc2)cc1  -7.97%
4. CCOc1cc(/C=C2\C(=N)N3N=C(N4CCOCC4)SC3=NC2=O)ccc1O  -7.18%
5. O=C(Cc1cccc2ccccc12)Nc1cccnc1  -6.39%
6. Cc1ccc(Cn2c(C)c(CNCCc3cccs3)c(C(=O)O)c2C)cc1  -5.49%
7. CC1CCC(N2CCC(O)(c3ccc(Br)cc3)CC2)CC1 (stereo not shown)  -5.44%
8. Cc1cccc(-c2noc(CN(C(=O)C(C)Oc3ccccc3)C(C)C)n2)c1 (stereo not shown)  -5.26%
9. COc1ccccc1C1C2=C(O)CCCC2=Nc2nc3ccccc3n21 (stereo not shown)  -5.19%
10. O=C(/C=C/c1ccco1)Nc1cnc2ccccc2c1  -5.03%
11. CCOc1ccccc1NC(=O)c1ccc(C(=O)O)cc1C(=O)O  -4.68%
12. Cc1ccc2n1CCN(c1nc(-c3ccc(Cl)cc3)cs1)C2C (stereo not shown)  -4.49%
13. COc1ccc(C(c2c(O)n(C)c(SC)nc2=O)c2c(O)n(C)c(SC)nc2=O)cc1O  -4.03%
14. CCOC(=O)N1CCN(C2CCCC(C)C2)CC1 (stereo not shown)  -3.6%
15. CCCn1c(NCc2sccc2C)nc2ccccc21  -3.52%
16. O=C1OC(c2cncc(Br)c2)=N/C1=C/C=C/c1ccccc1  -3.46%
17. CCOC(=O)c1cc(S(=O)(=O)N2CCc3cc(OC)c(OC)cc3C2C)cn1C (stereo not shown)  -2.84%
18. Cc1ccc(S(=O)(=O)Nn2cnnc2)cc1  -2.77%
19. O=S(=O)(c1ccc2c(c1)OCCO2)N1CCNCC1  -2.4%
20. CC1(C)Cc2c(sc3ncn4nc(CO/N=C/c5ccccc5)nc4c23)C(C)(C)N1  -2.26%
21. Cc1ccccc1Cn1c(C)c(CNCc2cccc(Cl)c2)c(C(=O)O)c1C  -2.14%
22. Cc1ccc2oc(=O)c3cc(C(=O)N4CCC(N5CCCCC5)CC4)sc3c2c1  -1.54%
23. c1ccc2nc(NCc3ccncc3)ccc2c1  -1.37%
24. COc1ccc(NC(=O)c2ccccc2NC(N)=O)cc1  -0.891%
25. C=CCC(NCc1ccccc1)c1ccco1 (stereo not shown)  -0.546%
26. O=C(CNC(=S)N(Cc1ccccc1)Cc1ccccc1F)NCCCN1CCOCC1  -0.519%
27. O=C(O)C1CCN(c2nc3ccccc3o2)CC1  -0.256%
28. CCc1sc(-c2cc3cccc(OC)c3oc2=O)nc1-c1ccccc1  -0.112%
29. N#CNC(=N)CSc1nc(-c2ccccc2)cc(C(F)(F)F)c1C#N  0.0719%
30. CC(C)(C)N1CC(COc2ccccc2)OC1=O (stereo not shown)  0.317%
31. O=C1NC(=O)/C(=C/C=C/c2ccccc2)S1  0.317%
32. O=C(NC1(C(F)(F)F)NC(=O)N(Cc2ccco2)C1=O)c1ccccc1F (stereo not shown)  0.475%
33. O=C(Cc1ccc(-c2ccccc2)cc1)NCc1nc(-c2ccccc2)no1  0.486%
34. Cc1ccc(C2=NS(=O)(=O)N(C)C(C(=O)N3CCN(C(=O)C(C)(C)C)CC3)=C2)cc1  0.655%
35. CSc1cccc(NC(=O)/C(=C/c2ccc(C)o2)NC(=O)c2ccccc2)c1  0.851%
36. CCN1CCN(C(=O)c2cc3c(s2)-c2ccc(Cl)cc2SC3)CC1  0.953%
37. COc1ccc(OC)c(CNS(=O)(=O)c2cc(-c3onc(C)c3C)ccc2OC)c1  1.56%
38. COc1ccc2c(Sc3ccccc3)c(C(=O)NCCN3CCN(C)CC3)[nH]c2c1  1.61%
39. CCOc1cccc(/C=C2/NC(=O)N(Cc3ccccc3F)C2=O)c1O  1.83%
40. CCOC(=O)N1CCC(NCc2cccnc2)CC1  1.88%
41. Cc1ccc(CNC(=O)CCS(=O)(=O)c2ccc(Br)s2)cc1  2.01%
42. NC(=O)C1CCN(C2CC(=O)N(c3cccc(Cl)c3)C2=O)CC1 (stereo not shown)  2.08%
43. COc1ccccc1C1C(C#N)=C(N)Oc2cc(C)n(Cc3ccc4c(c3)OCO4)c(=O)c21 (stereo not shown)  2.31%
44. O=C(CN1C(=O)c2ccccc2S1(=O)=O)Nc1ccc(C2[C@H]3C[C@@H]4C[C@@H](C[C@H]2C4)C3)cc1 (stereo partly shown)  2.65%
45. CSc1ccc(CCNCc2c(C(=O)O)c(C)n(Cc3cccc(Cl)c3)c2C)cc1  2.8%
46. CCO/C(O)=C1/C(C)=Nc2nc(SC)nn2C1c1ccc(C(=O)OC)cc1 (stereo not shown)  2.97%
47. CCOc1ccc(NC(=O)C2=C(C)NC(=O)NC2c2ccccc2Cl)cc1 (stereo not shown)  2.98%
48. COc1ccccc1CC(=O)Nc1ccc(CC#N)cc1  3.01%
49. CC(=O)OCC12COC(CN3CCCCC3)C(C(C)=CC1C)C2C (stereo not shown)  3.32%
50. CCCCNC(=O)c1cc([N+](=O)[O-])[nH]n1  3.48%
51. CCCC(=O)Nc1ccc(C(=O)Nc2ccccc2F)cc1  3.56%
52. COc1ccc2oc(=O)cc(CN3CCN(C(=O)c4ccccc4C)CC3)c2c1  3.88%
53. CCC(C)Oc1ccc(C(=O)Nc2ccc(CN3CCOCC3)cc2)cc1 (stereo not shown)  4.11%
54. O=C(Nc1nccs1)c1cccc(S(=O)(=O)N2CCCCC2)c1  4.35%
55. COc1cccc(-c2ccc(C#N)c(SCC(=O)NC3CCCC3)n2)c1  5.54%
56. COc1ccc(C2C(C#N)=C(N)Oc3[nH]nc(C45CC6CC(CC(C6)C4)C5)c32)c(OC)c1OC (stereo not shown)  6.27%
57. N#CC1CC(c2ccc(Cl)cc2)=NN1c1ccccc1 (stereo not shown)  6.52%
58. CC1CCN(C(=O)c2cc3ccc4cccnc4c3[nH]2)CC1  7.61%
59. O=[N+]([O-])c1ccc(N2CCOCC2)nc1  7.98%
60. Oc1[nH]c2ccccc2c1C1=NCCCCC1  16.1%
61. COc1ccc(/C(O)=C/c2nc3ccc(C(=O)N4CCN(C5CCCCC5)CC4)cc3nc2O)cc1  16.6%
62. CCC(C)c1c(O)nc(SCc2ccccc2)nc1O (stereo not shown)  16.9%
63. COc1ccccc1C(=O)Nc1c2c(nc3c1CCC3)CCCC2  17.5%
64. O=c1[nH]c(=S)[nH]c2scc(-c3ccccc3)c12  32.7%
